Screen size: about 270,000 compounds; about 620 (0.23%) were called active. The shares of active, inactive and inconclusive entries below differ from those in the screen. The call rests on the fitted dose curve; in most records, active means well fitted inhibition curve with a large enough effect in the polarisation, with a control signal flat (not every such curve was filed as active); inconclusive means small, poorly fitted or top-dose-only effect, or effect the other way, or a change in a side signal; inactive means no such curve, though single readings can be large or run the other way; the % refers to the polarisation. Potencies beside an inconclusive call are fits to weak or partial responses and may not hold up. A note “side channel” means that the fit belongs to a control or component signal, not to the main read-out.
The compounds below were run against Menin (Homo sapiens) (UniProt O00255) (assay: qHTS Assay for Inhibitors Targeting the Menin-MLL Interaction in MLL Related Leukemias: Competition With Texas Red Labeled MLL-derived Mutant Peptide). Conditions: fluorescence polarization; FP activity change, negative = inhibition: at 61.6 µM (top of the series).
Sequence of UniProt O00255 (O00255 whole entry, looked up): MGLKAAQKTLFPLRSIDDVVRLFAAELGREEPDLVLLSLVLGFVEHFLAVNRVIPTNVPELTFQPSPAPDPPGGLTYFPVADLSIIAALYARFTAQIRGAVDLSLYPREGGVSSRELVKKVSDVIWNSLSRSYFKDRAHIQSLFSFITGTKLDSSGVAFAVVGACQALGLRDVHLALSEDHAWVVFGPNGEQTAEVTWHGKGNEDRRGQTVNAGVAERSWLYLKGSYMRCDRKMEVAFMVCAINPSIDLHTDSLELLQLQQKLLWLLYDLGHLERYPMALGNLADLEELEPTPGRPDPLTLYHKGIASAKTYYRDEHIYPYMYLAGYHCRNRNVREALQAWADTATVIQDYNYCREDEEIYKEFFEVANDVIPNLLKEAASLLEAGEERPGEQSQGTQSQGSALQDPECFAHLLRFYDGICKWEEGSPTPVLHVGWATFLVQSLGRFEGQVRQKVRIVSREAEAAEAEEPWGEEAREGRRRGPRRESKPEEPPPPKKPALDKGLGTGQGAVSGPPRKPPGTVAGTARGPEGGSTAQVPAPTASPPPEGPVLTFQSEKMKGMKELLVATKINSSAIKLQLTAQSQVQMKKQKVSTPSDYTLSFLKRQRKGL
Potency means the concentration at half of the fitted maximal effect; tags describe the fitted curve by direction and shape or compound fluorescence and quenching.
Wherever FP activity change, negative = inhibition is given: % of control where 0% means no effect.

FP activity change, negative = inhibition, inactive:
O=C1c2cccc3cccc(c23)C(=O)N1c1ccc(O)cc1 0.525%, CC(C)(C)NC(=O)COC(=O)c1snc(C(=O)NC2CCCCC2)c1N -11.7%, COc1ccc2c3c(c(=O)oc2c1OCC(N)=O)CCCC3 2.67%, OCCCc1ccccc1 -1.7%, O=C1CC(Nc2ccc(N3CCOCC3)cc2)C(=O)N1Cc1ccccc1 (stereo not drawn) 1.88%, CC(C)CC(CSc1ccc(Br)cc1)N1CCN(CC(C)C)CCC1=O (stereo not drawn) -13.6%

Potency, inconclusive:
Cc1nc(NC(=O)c2ccccc2)sc1-c1csc(NCCc2ccccc2)n1 10 µM [quencher, side channel, partial curve], CSc1ccc(C2Nc3cccc4cccc(c34)N2)cc1 10 µM [quencher, side channel, partial curve], O=C(c1csc2c1CCCCC2)N1CCN(c2ncccn2)CC1 7.94 µM [inhibitor, partial curve, poor fit], O=C(Nc1ccc([N+](=O)[O-])cc1)Nc1ccc(OC(F)F)c(Cl)c1 20 µM [quencher, partial curve], N#C/C(=C\c1ccc(OCc2ccccc2)cc1)C(=O)Nc1ccc(C(=O)O)cc1 39.8 µM [inhibitor, single point], O=C(Nc1ncc(Br)s1)C(Cc1ccccc1)n1cccc1 (stereo not drawn) 15.8 µM [quencher, side channel, partial curve], CCCCCCC1/C(=N\NC(=O)c2ccccc2)CCC1C(=O)OC (stereo not drawn) 10 µM [fluorescent, side channel, partial curve], CCCCNC(=O)c1onc(CSc2ccc(Cl)cc2)c1C(=O)O 28.2 µM [quencher, side channel, single point], CCc1nc(SCC(=O)Nc2ccccc2Cl)n[nH]1 8.91 µM [quencher, side channel, single point], COc1cccc(OCCn2cc(/C=N/NC(=O)c3ccncc3)c3ccccc32)c1 12.6 µM [quencher, side channel, partial curve], N=C1/C(=C/c2ccc(-c3cccc(C(=O)O)c3)o2)C(=O)N=C2SC(CC(=O)N3CCOCC3)=NN12 12.6 µM [quencher, side channel, partial curve], O=C(NCC1COc2ccccc2O1)C1CCCN(S(=O)(=O)c2cccc3nsnc23)C1 (stereo not drawn) 0.708 µM [inhibitor, full curve, poor fit], COc1ccc(-c2cc(C(=O)Nc3cc(Cl)ccc3O)no2)cc1 39.8 µM [fluorescent, side channel, single point], CCOC(=O)C1(Cc2cccc(OC)c2)CCN(Cc2cccc3cnccc23)CC1 3.16 µM [fluorescent, side channel, partial curve], COc1ccccc1Nc1nc(-c2c(C)[nH]c3ccccc23)cs1 22.4 µM [quencher, side channel, partial curve], NC(=S)Nc1nccc(-c2cccs2)n1 39.8 µM [inhibitor, single point], O=C(N/N=C/c1ccc2c(c1)OCO2)C(=O)Nc1cccc(Cl)c1 35.5 µM [fluorescent, side channel, single point], O=C(NC1CCCCC1)N1CCCC(c2nc(-c3cccs3)no2)C1 (stereo not drawn) 31.6 µM [fluorescent, side channel, single point], Cc1ccc(Cn2nnc3c(=O)n(Cc4cc(C)ccc4C)cnc32)cc1 7.08 µM [fluorescent, side channel, single point], N=C1/C(=C\c2ccc(OCc3ccccc3)cc2)C(=O)N=C2SC(N3CCCC3)=NN12 15.8 µM [quencher, side channel, partial curve], CCc1cc(C(=O)O)c(NC(=O)/C=C/c2ccc(OC)c(OC)c2)s1 3.98 µM [quencher, side channel, full curve], Cn1cccc1C(=O)C(=O)Nc1cc(Cl)cc(Cl)c1 6.31 µM [quencher, side channel, single point], O=C(COC(=O)/C=C/c1cccc(Cl)c1)NCCc1ccccc1 28.2 µM [fluorescent, side channel, single point], COc1cc2c(C)nc3c(cnn3-c3ccccc3)c2cc1OC 39.8 µM [quencher, side channel, single point], Cc1nc2ccccc2c(=O)n1/N=C/c1cn(-c2ccccc2)nc1-c1cccs1 20 µM [quencher, side channel, single point], CC(=O)Nc1ccc(NC(=O)c2ccc(Cn3cc(Cl)cn3)cc2)cc1 39.8 µM [inhibitor, single point], CCCCCC(O)(c1ccc(OC)cc1)C(CN1CCOCC1)c1ccccc1 (stereo not drawn) 39.8 µM [fluorescent, side channel, single point], Cc1c(C#N)c(NC(=O)CCl)n(Cc2cccs2)c1C 39.8 µM [inhibitor, single point], O=C(Nc1ccc(Nc2ccccc2)cc1)c1ccc(Br)o1 20 µM [quencher, side channel, partial curve], CCc1nnc2sc(-c3ccc(NC(=O)c4ccco4)cc3)nn12 39.8 µM [inhibitor, single point], Cc1ccc(S(=O)(=O)n2nc(C)c(S(=O)(=O)N3CCOCC3)c2C)cc1 20 µM [inhibitor, partial curve], CN(C)c1ccc(/C=C(\NC(=O)c2ccccc2)C(=O)N/N=C/c2ccc(C(=O)O)cc2)cc1 12.6 µM [quencher, side channel, partial curve]

From PubChem BioAssay AID1768 (National Center for Advancing Translational Sciences (NCATS), 2009)
